From PubChem BioAssay (NCATS)
Inconclusive results, whose numbers are uncertain, are shown with a selection of clear calls. Potencies beside an inconclusive call are fits to weak or partial responses and may not hold up. Activity calls are given as the source filed them. Calls come from the whole dose curve; as a rule, active = well fitted cell-killing curve with a large enough effect; inconclusive = small, poorly fitted or top-dose-only effect, or effect the other way; inactive = no such curve, though single readings can be large or run the other way.

assay: Viability qHTS for spleen associated tyrosine kinase inhibitor (SYKi) naive MV4-11 cells (AID 1963823); settings: MV4-11 AML viability, CellTiter-Glo luminescence, 72 h; viability (% of control): at 45 µM (top of the series); note: nearly all actives have a fitted effect of over 40% in size
Procedure, shortened: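 CellTiter-Glo luminescence, 10 min room-temperature incubation, gave viability. Cells: naive MV4-11 (500/well), treated 72 hr at 37 C, 5% CO2.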
Potency is the fitted concentration of half-maximal effect; tags give direction and shape of the fitted curve.

Structure (SMILES) | Potency | viability (% of control)
CCC(=O)OCC(=O)[C@@]1(OC(=O)CC)[C@@H](C)C[C@H]2[C@@H]3CCC4=CC(=O)C=C[C@]4(C)[C@@]3(F)[C@@H](O)C[C@@]21C | active: 18.4 µM | 
C=CC(C)(C)C12CC3C(=O)N4C(CC5(C(C)(C)C=C)c6ccccc6NC45)C(=O)N3C1Nc1ccccc12 (stereo not given) | inconclusive: 15.9 µM [cytotoxic, single point] | 
COc1cc2c(cc1OC)N1C(=O)C[C@]34C=CCN5CC[C@@H]2[C@@H](CC3)[C@]514 | inconclusive: 10.1 µM [cytotoxic, partial curve, poor fit] | 
C=C1C(OC2OCC(O)C(O)C2O)CC2C(C)(C)C(O)CCC2(C)C1CC/C(C)=C\CO (stereo not given) | inconclusive: 14.2 µM [cytotoxic, single point] | 
C[C@@H](NC(=O)C(=O)c1c[nH]c2ccc([N+](=O)[O-])cc12)c1ccccc1 |  | inactive: 60.2%
Oc1ccccc1-c1nnco1 |  | inactive: 93.7%
COc1c(C)c(C(=O)c2ccc(N)c(C(=O)O)c2)n2ccccc12 | inactive | 
Cc1nc(Nc2n[nH]c3c2CN(C(=O)NC(CN(C)C)c2ccccc2)C3(C)C)c2sccc2n1 (stereo not given) | inconclusive: 0.0146 µM [cytotoxic, full curve] | 
C/C=C(/COC(=O)/C(C)=C/C)C(=O)OC/C=C/c1ccc(OC)cc1 | inconclusive: 16.1 µM [cytotoxic, single point] | 
CCCCCN=C(N)N/N=C/c1c[nH]c2ccc(OC)cc12 | inconclusive: 2.66 µM [cytotoxic, full curve] | 
CC1(C)CCC2(C(=O)OC3OCC(O)C(O)C3O)CCC3(C)C(=CCC4C5(C)CC(O)C(OC6OC(COC7OCC(O)C(O)C7O)C(O)C(O)C6O)C(C)(C)C5CCC43C)C2C1 (stereo not given) |  | inactive: 68.8% [at 9.25 µM]
CNc1nc(Nc2ccc(C(=O)N3CCOCC3)cc2OC)nc2[nH]cc(Cl)c12 | inconclusive: 4.11 µM [cytotoxic, partial curve] | 
CCCCOC(=O)CC(CC(=O)OCCCC)(OC(C)=O)C(=O)OCCCC |  | inactive: 60.4%
CC(C)[C@H]1CCC(CO)=C[C@@H]1/C=C(\CO)C(=O)O | inconclusive: 0.651 µM [cytotoxic, partial curve, poor fit] | 
c1ccc(C(OC2CCN(CCCc3nn[nH]n3)CC2)c2ccccc2)cc1 | inconclusive: 5.17 µM [cytotoxic, single point] | 
CC[C@@H]1[C@H](F)C(=O)N[C@@H]1COc1nccc2cc(C(N)=O)c(OC)cc12 | active: 11.8 µM | 
O=C(Nc1cnn2ccc(N3CCC[C@@H]3c3cc(F)ccc3F)nc12)N1CC[C@H](O)C1 | inconclusive: 20.9 µM [cytotoxic, partial curve, poor fit] | 
CC(C)(C)OC(=O)N1CCC(OCc2nc(-c3ccncc3)no2)CC1 |  | inactive: 52%
CC/C=C\CC1C(=O)C=CC1(CCCCC1CCC(=O)O1)OC(C)=O (stereo not given) | active: 12.8 µM | 
CCC(C)CNCC(=O)N1CCc2sccc2C1COc1cccc(C)c1 (stereo not given) | active: 9.2 µM | 

Structure (SMILES) | Potency | viability (% of control)
CN1CCN(C2=Nc3ccccc3Nc3ccc(OS(=O)(=O)C(F)(F)F)cc32)CC1 | inconclusive: 25.9 µM [cytotoxic, partial curve] | 
C/C(=C\CO)CC/C=C(\C)C(=O)O[C@H]1[C@H](OC2OC=C(C(=O)O)C3CCC(C)(O)C23)O[C@H](CO)[C@@H](O)[C@@H]1O (stereo not given in full) |  | inactive: 78.1% [at 17.3 µM]
C[C@H](O)[C@H](O)[C@H]1CNc2nc(N)[nH]c(=O)c2N1 |  | inactive: 77%
COc1cc(C=C2CCC/C(=C\c3ccc(O)c(OC)c3)C2=O)ccc1O | active: 3.76 µM | 
O=c1oc2c(C3OCCCO3)c(O)ccc2c2c1CNCC2 | active: 13.2 µM | 
CCCCCCCCCCCCCCCCCC(=O)OCC(O)CO (stereo not given) |  | inactive: 76.1%
C=C(CCO)C(=O)OCC1OCC(OC(=O)C(=C)CCO[C@@H]2O[C@H](COC(=O)C(=C)CCO[C@@H]3O[C@H](CO)[C@@H](O)[C@H](O)[C@H]3O)[C@@H](O)[C@H](O)[C@H]2O)C(O)C1O (stereo not given in full) | inconclusive: 9.68 µM [cytotoxic, single point] | 
OC[C@@]1(O)CO[C@@H](OC[C@H]2O[C@@H](OCc3ccccc3)[C@H](O)[C@@H](O)[C@@H]2O)[C@@H]1O |  | inactive: 82.7% [at 17.3 µM]
O=C(O[C@H]1[C@@H]2C[C@@H]3OC[C@](O)([C@@H]1Cl)[C@H]2C(O[C@@H]1O[C@H](CO)[C@@H](O)[C@H](O)[C@H]1O)O3)c1ccc(O)c(O)c1 (stereo not given in full) |  | inactive: 80.1% [at 17.3 µM]
C[C@@H]1C[C@@H]([C@@H](O)C(C)(C)O)O[C@H]2C[C@@]3(C)C(=C12)C[C@H](O)[C@H]1[C@@]2(C)CCC(=O)C(C)(C)C2CC[C@@]13C (stereo not given in full) | inconclusive: 0.399 µM [cytotoxic, full curve, poor fit] | 
CN(C)CC(c1ccc(O)cc1)C1(O)CCCCC1 (stereo not given) |  | inactive: 81.4%
C/C=C(/C)C(=O)O[C@H]1C=C(CO)C(=O)[C@H](OC(=O)/C(C)=C/CO)[C@H]1C(C)C | active: 2.02 µM | 
CC[C@H]1OC(=O)[C@H](C)[C@@H](O[C@H]2C[C@@](C)(OC)[C@@H](O)[C@H](C)O2)[C@H](C)[C@@H](O[C@@H]2O[C@H](C)C[C@H](N(C)C)[C@H]2O)[C@@](C)(O)C[C@@H](C)[C@@H]2N[C@@H](COCCOC)OC([C@H]2C)[C@]1(C)O | inconclusive: 11.6 µM [cytotoxic, partial curve, poor fit] | 
CC1CCC2(C(=O)OC3OC(CO)C(O)C(O)C3O)CCC3(C)C(=CCC4C5(C)CC(O)C(O)C(C)(C(=O)O)C5CCC43C)C2C1(C)O (stereo not given) |  | inactive: 78.1% [at 17.3 µM]
C=C(C)C1Cc2cc(C(=O)OC3OC(CO)C(O)C(O)C3O)ccc2O1 (stereo not given) | inconclusive: 12.8 µM [cytotoxic, single point] | 
CC1CCC2(NC1)OC1CC3C4CC=C5CC(O[C@@H]6O[C@H](CO)[C@@H](O[C@@H]7O[C@@H](C)[C@H](O)[C@@H](O)[C@H]7O)[C@H](O)[C@H]6O[C@@H]6O[C@@H](C)[C@H](O)[C@@H](O)[C@H]6O)CCC5(C)C4CCC3(C)C1C2C (stereo not given in full) | inconclusive: 6.93 µM [cytotoxic, single point] | 
CC1(C)S[C@@H]2[C@H](NC(=O)Cc3ccccc3)C(=O)N2[C@H]1C(=O)O (tested in a mixture with another compound) |  | inactive: 77.7%
OCC1OC(Oc2cc(O)c3c(c2)OC(c2ccc(O)cc2)C(O)C3)C(O)C1O (stereo not given) |  | inactive: 65.6% [at 17.3 µM]
CC[C@H]1OC(=O)[C@](C)(F)C(=O)[C@H](C)[C@@H](O[C@@H]2O[C@H](C)C[C@H](N(C)C)[C@H]2O)[C@](C)(OC)C[C@@H](C)C(=O)[C@@H](C)[C@H]2N(CCCCn3cc(-c4cccc(N)c4)nn3)C(=O)O[C@]12C | inconclusive: 9.2 µM [cytotoxic, partial curve] | 
CCCCCCCCCCCCCCCCCCOCC(O)CO (stereo not given) |  | inactive: 78%
